Assay results as given in PubChem BioAssay AID2546 (National Center for Advancing Translational Sciences (NCATS), 2010).
About 11,000 (3.5%) of roughly 310,000 compounds were called active. This list was built around the results that the source calls inconclusive (neither active nor inactive); the mix of calls is not that of the screen. The call rests on the fitted dose curve; in most records, active means well fitted inhibition curve with a large enough effect; inconclusive means small, poorly fitted or top-dose-only effect, or effect the other way; inactive means flat fitted curve, though single readings scatter. Potencies of inconclusive entries are left out as doubtful fits. The source holds several records for some structures; these can differ, active in one and inactive in another.
Potency means the concentration at half of the fitted maximal effect; tags describe the fitted curve by direction and shape.

Assay: VP16 counterscreen qHTS for inhibitors of ROR gamma transcriptional activity;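 further: Gal4-VP16 expression switched on by copper sulfate through the metallothionein promoter; nearly all actives have a fitted effect of over 50% in size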
Conditions: Drosophila S2 Gal4-VP16 UAS-luciferase, luminescence, 20 h; series mostly up to 53.6 µM
For CC(=O)Nc1cccc(OCC(=O)/C=C2\N(C)c3ccccc3C2(C)C)c1, the Potency was active: 3.16 µM.
With CCCCCCn1c(=O)[nH]c2nc3cc(N)c(C)cc3nc2c1=O the Potency was “inactive”.
In the case of CC(=O)c1c(C)n(CC(=O)NCc2ccc3c(c2)OCO3)c2ccccc12, the Potency is reported as inconclusive [inhibitor, single point].
In the case of NS(=O)(=O)c1ccc(N/C=C/C(=O)c2ccc(Br)cc2)cc1, the Potency is reported as inconclusive [inhibitor, single point].
In the case of Cc1nn(C)c(C(=O)NC(=S)Nc2ccccc2Br)c1Cl, the Potency is reported as active: 14.1 µM.
For Brc1cc2c(cc1/C=N/Nc1nc3ccccc3s1)OCO2, the Potency was inconclusive [inhibitor, single point].
For O=Cc1cnc2ccccc2c1-c1ccccc1, the Potency was “inactive”.
In the case of CC(C)NC(=O)c1ccc2c(=O)n(C3CCCC3)c(=S)[nH]c2c1, the Potency is reported as inconclusive [inhibitor, full curve, poor fit].
For O=C(CNC(=O)c1ccc(Cl)cc1)OC1CCOC1=O (stereo not drawn), the Potency was “inactive”.
In the case of COc1ncc2ncc(=O)n(CCc3ccccc3)c2n1, the Potency is reported as “inactive”.
For CC(C)(C)N1C(=O)c2ccc(C(=O)Nc3nccs3)cc2C1=O, the Potency was inconclusive [inhibitor, partial curve, poor fit].
In the case of COc1ccc(C2OC(=O)CC2C(=O)NCc2ccc(Cl)cc2)cc1OC (stereo not drawn), the Potency is reported as inconclusive [activator, full curve].
With COc1ccccc1C1CC(c2cccs2)=Nc2ccccc2S1 (stereo not drawn) the Potency was inconclusive [inhibitor, full curve].
With COc1cc(Cl)ccc1OCc1cc(C(=O)NCC(C)c2ccccc2)no1 (stereo not drawn) the Potency was inconclusive [inhibitor, single point].
For COC(=O)/C(=C1/Oc2ccc(C)cc2S1)C(F)(F)F, the Potency was inconclusive [activator, single point].
In the case of C/C(=N\N1CCN(Cc2ccc(Cl)cc2)CC1)c1ccc([N+](=O)[O-])cc1, the Potency is reported as inconclusive [inhibitor, partial curve, poor fit].
In the case of CCc1nnc(NC(=O)c2ccc(S(=O)(=O)N(C)Cc3ccccc3)cc2)o1, the Potency is reported as inconclusive [inhibitor, full curve, poor fit].
For Cc1ccc(N2CC(O)=C(c3ccccc3)C2=N)cc1, the Potency was “inactive”.
For CCOc1cc(S(=O)(=O)Nc2cc(C)cc(C)c2)ccc1Cl, the Potency was inconclusive [inhibitor, partial curve].
In the case of S=C(N/N=C/c1ccc(Cl)cc1)N1CCOCC1, the Potency is reported as active: 1.78 µM.
For OC(COCc1ccc(Cl)cc1)CN1CCc2ccccc2C1 (stereo not drawn), the Potency was inconclusive [activator, single point].
In the case of CC1(C(=O)NC(=S)NNC(=O)c2ccncc2)CCCCC1, the Potency is reported as active: 12.6 µM.
For S=c1[nH]nc(-c2ccco2)n1/N=C/c1ccc(Br)s1, the Potency was inconclusive [inhibitor, single point].
With COc1cc(/C=C(/C#N)C(=O)NCc2ccccc2)cc(OC)c1OC the Potency was inconclusive [inhibitor, partial curve].
In the case of COc1ccc(-n2c(SC(C)C(=O)Nc3ncc(Cl)cc3Cl)nc3ccccc32)cc1 (stereo not drawn), the Potency is reported as “inactive”.
In the case of CC(C)(C)C(=O)O/N=C(\N)c1ccc([N+](=O)[O-])s1, the Potency is reported as inconclusive [activator, full curve, poor fit].
In the case of Cc1cccc(COC[C@H](Cc2ccccc2)N2CCN(C(=O)c3cccc(C)c3)CCC2=O)c1, the Potency is reported as “inactive”.
In the case of COc1ccc(C)cc1NC(=O)C1C2C=CC(C2)C1C(=O)O (stereo not drawn), the Potency is reported as inconclusive [inhibitor, single point].
For Cc1cc(Sc2nc(N)ncc2[N+](=O)[O-])ncn1, the Potency was inconclusive [inhibitor, single point].
In the case of CSc1ccc(NC(=O)Nc2cccn(Cc3ccccc3)c2=O)cc1, the Potency is reported as inconclusive [inhibitor, single point].
For NC(=O)NC(=O)COC(=O)/C=C/c1cccs1, the Potency was “inactive”.
For O=C(COc1cc(Cl)c(Cl)cc1Cl)Nc1ccc([N+](=O)[O-])cc1Cl, the Potency was “inactive”.
With O=C(CCl)Nc1c(C(=O)Nc2ccc3c(c2)OCCO3)oc2ccccc12 the Potency was inconclusive [inhibitor, single point].
In the case of Cc1ccc(-c2csc(N(CCO)CCCn3c(C(F)(F)F)nc4ccccc43)n2)cc1, the Potency is reported as inconclusive [inhibitor, single point].
With COc1ccc(C(=O)Nc2cccc(C(C)=O)c2)c(OC)c1OC the Potency was inconclusive [inhibitor, single point].
In the case of c1ccc2nc3ccccc3nc2c1, the Potency is reported as “inactive”.
With COc1cc(-c2nnc(NC(=O)c3ccc(S(=O)(=O)N4CCOCC4)cc3)o2)cc(OC)c1OC the Potency was inconclusive [inhibitor, single point].
For COc1ccc(CN2CCNC(=O)C2CC(=O)NCc2csc(C)n2)c(F)c1 (stereo not drawn), the Potency was “inactive”.
In the case of CC(=O)c1sc(NC(=O)CCN2C(=O)c3ccccc3C2=O)nc1C, the Potency is reported as “inactive”.
In the case of Cc1cc(C)nc(NC(=S)Nc2cccc(F)c2)c1, the Potency is reported as active: 7.08 µM.
For O=C(/C=C/c1ccc(Cl)cc1)NC(=S)Nc1ccc(N2CCOCC2)c(Cl)c1, the Potency was active: 5.62 µM.
In the case of O=C(CCN1C(=O)C2C3CCC(C3)C2C1=O)Nc1ccc(Cl)cc1Cl (stereo not drawn), the Potency is reported as inconclusive [activator, single point].
With CN(Cc1ccc(Br)cc1)CC(O)COc1cccc(Br)c1 (stereo not drawn) the Potency was inconclusive [inhibitor, single point].
In the case of CCOC(=O)N1CCN(C(=O)c2ccc3c(=O)n(Cc4ccccc4)c(=S)[nH]c3c2)CC1, the Potency is reported as inconclusive [inhibitor, single point].
In the case of COc1ccc([N+](=O)[O-])cc1N(CC(O)CN(C)C)S(=O)(=O)c1ccc(C)cc1 (stereo not drawn), the Potency is reported as “inactive”.
In the case of CCOC(=O)C1(CC2CC2)CCN(C(=O)c2ocnc2C)CC1, the Potency is reported as inconclusive [activator, partial curve].
With Oc1ccc(Cl)c2cccnc12 the Potency was active: 3.16 µM.
In the case of NC(=S)N/N=C1\CC(n2nnnc2-c2ccccc2Cl)C2COC1O2 (stereo not drawn), the Potency is reported as inconclusive [activator, single point].
In the case of C/C(CCc1ccco1)=N/NC(=O)CCC(=O)Nc1ccc(Br)cc1, the Potency is reported as inconclusive [inhibitor, partial curve].
With CCOC(=O)c1[nH]c2cc(OC)c(OC)cc2c1NC(=O)c1ccc2c(c1)OCO2 the Potency was inconclusive [inhibitor, single point].
In the case of Cc1cccc(CNc2cc(-c3cccc(NS(C)(=O)=O)c3)ncn2)c1, the Potency is reported as “inactive”.
In the case of Cc1ccc(C(=O)/C=C/Nc2ccc([N+](=O)[O-])cc2Br)cc1, the Potency is reported as inconclusive [inhibitor, partial curve, poor fit].
In the case of Cc1ccc(C(=O)NCc2ccccn2)cc1S(=O)(=O)N1CCCCC1, the Potency is reported as “inactive”.
In the case of COc1cc(NC(=S)Nc2ccccn2)c(OC)cc1Cl, the Potency is reported as active: 7.08 µM.
For O=C(CCc1ccc(O)c(O)c1)N/N=C/c1ccc2c(c1)OCO2, the Potency was inconclusive [inhibitor, partial curve].
In the case of O=C1C=CC(=O)C(C2=C3C(=O)N(CCc4ccccc4)CC(=O)N3CCC2)=C1, the Potency is reported as active: 7.94 µM.
For COC(=O)c1c(NC(=O)c2ccccc2)sc(C(=O)c2ccccc2)c1C, the Potency was inconclusive [inhibitor, single point].
With COc1ccc(C(=O)Nc2nnc(SCC(=O)NC3CC3)s2)cc1 the Potency was inconclusive [inhibitor, single point].
For CCOc1ccc(OCC)c(NC(=O)C2CCN(S(=O)(=O)c3cccnc3)CC2)c1, the Potency was “inactive”.
With Cc1cccc(C)c1OCc1cc(C(=O)N2CC3C[C@@H]4CC2C[C@H](C3)C4)no1 the Potency was inconclusive [inhibitor, single point].
In the case of COC(=O)c1sc(NC(=O)c2c(-c3ccccc3)noc2C)nc1C, the Potency is reported as inconclusive [inhibitor, single point].
For CN(C)c1ccc(CNc2ncnc3sccc23)cc1, the Potency was active: 7.08 µM.
In the case of O=C(C1CCC(CNS(=O)(=O)c2cccs2)CC1)N1CCN(c2ccc(Cl)cc2)CC1 (stereo not drawn), the Potency is reported as inconclusive [inhibitor, single point].
With COc1ccccc1-n1c(-c2ccccc2)c[nH]c1=S the Potency was inconclusive [inhibitor, single point].
In the case of O=C(CN1CCCCCC1)Nc1ccc(Br)cn1, the Potency is reported as “inactive”.
In the case of COC(=O)c1cc(NC(=O)c2c(-c3ccccc3)noc2C)ccc1N1CCOCC1, the Potency is reported as “inactive”.
With CCOc1ccc(NC(=S)NC(=O)c2c(Cl)c(C)nn2C)c([N+](=O)[O-])c1 the Potency was inconclusive [inhibitor, single point].
With CCc1c(C(=O)NNC(=S)NCC(C)C)csc1C the Potency was active: 17.8 µM.
With CC1(C)CCc2cc(-c3ccnc(=S)[nH]3)ccc2O1 the Potency was active: 3.16 µM.
With CCCC(=O)Nc1ccc(NC(=S)NC(=O)c2cccs2)cc1 the Potency was inconclusive [activator, full curve].
With COc1ccc(/C=N/OCC(=O)NC(c2ccccc2)c2ccccc2)c(OC)c1 the Potency was inconclusive [inhibitor, single point].
For CC(Sc1nc2ccccc2s1)C(=O)c1c(N)n(C)c(=O)n(C)c1=O (stereo not drawn), the Potency was inconclusive [inhibitor, single point].
With CCOc1ccc(-n2nnnc2SCC(=O)Nc2cccc(O)c2)cc1 the Potency was inconclusive [inhibitor, single point].
